# Measured values published in the supplement of paper PMC3334620.
# Over roughly 33,000 sequences, “E-score (-0.5 to 0.5)” has its median near -0.035; the highest 2% begin near 0.34. The list shows a part of the results.
# Target: T1, Mot3 (UniProt P54785)
# T1 sequence: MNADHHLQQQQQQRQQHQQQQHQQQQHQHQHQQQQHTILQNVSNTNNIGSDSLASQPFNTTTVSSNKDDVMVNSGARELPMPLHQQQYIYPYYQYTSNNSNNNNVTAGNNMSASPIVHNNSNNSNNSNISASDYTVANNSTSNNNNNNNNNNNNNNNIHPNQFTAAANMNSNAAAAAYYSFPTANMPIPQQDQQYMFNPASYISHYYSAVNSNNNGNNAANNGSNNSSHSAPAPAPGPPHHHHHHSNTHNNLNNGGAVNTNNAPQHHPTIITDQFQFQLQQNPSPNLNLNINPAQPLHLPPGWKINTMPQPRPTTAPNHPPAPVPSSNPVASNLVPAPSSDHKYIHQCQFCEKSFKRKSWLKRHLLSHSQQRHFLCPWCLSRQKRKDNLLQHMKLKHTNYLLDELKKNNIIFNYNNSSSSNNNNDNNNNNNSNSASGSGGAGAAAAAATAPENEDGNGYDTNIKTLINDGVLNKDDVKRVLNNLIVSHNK
# Assay: PBM E-score (8-mer binding enrichment) (E-score (-0.5 to 0.5)); higher = stronger / more preferred TF binding; most listed sequences are background and not binding sites
# Conditions: protein concentration: 200 nM; construct: GST-full length
# In short: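 Universal all-10-mer Agilent arrays, double-stranded by primer extension on fresh or once-stripped slides, were probed with about 100-200 nM GST-tagged yeast transcription factors made by PURExpress. Fluorescent anti-GST detected bound protein, and masliner normalised the scans. E-scores from the Universal PBM Analysis Suite were given to each ungapped eight-base word pooled with its reverse complement.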
row,Sequence,PBM E-score
1,AAATAAAG,-0.056
2,GTACGGGA,-0.0576
3,AATCTCAC,-0.123
4,ACATGTCC,0.259
5,AAAAGCTT,0.115
6,CAGTACAA,0.0155
7,GTATACAA,0.181
8,GCGCATCC,-0.0152
9,AAGAGAGA,0.0257
10,GCCGGTAC,-0.0905
11,ATTTCAAG,0.0233
12,CCATTGGG,-0.275
13,GGCAGTAC,0.0561
14,CATCCTCA,-0.102
15,AATTTAAG,0.0519
16,AATTCCAG,-0.00489
17,CAGTGATA,-0.0792
18,CGTTGCGC,-0.0266
19,GACAAAAA,0.0881
20,GAATACAA,0.214
21,AGCGAAAT,0.0221
22,GCGAAAGA,-0.039
23,ACGCCCTC,-0.0732
24,ATCGGGGG,-0.388
25,CGAAGGTC,-0.313

row,Sequence,PBM E-score
1,ATTGGCTC,0.00098
2,GTGTCAAA,0.262
3,AAAGGCCG,-0.309
4,ACGAGACA,-0.107
5,AATGGGTG,0.0474
6,ATCTATGG,-0.335
7,ATACTTGG,-0.146
8,GGGGAGTA,-0.162
9,CATTCCCG,-0.0674
10,AAAACCAA,0.161
11,ATTCACTC,0.0527
12,ACTGTTCT,-0.0685
13,ATCAGTCG,-0.0808
14,CATTAACC,0.11
15,CCTACGTC,0.0371
16,ATGAATTA,0.0978
17,GCCTCAGC,-0.105
18,AATTATGC,0.191
19,GAGCAGTA,-0.192
20,CCGCCCGG,-0.178
21,CATCTATA,-0.0629
22,GCATTCGC,-0.00393
23,AATGATCA,-0.084
24,AACGGTAC,-0.145
25,AGCCAGCA,-0.257

row,Sequence,PBM E-score
1,TGAGTCAA,0.046
2,CTACTTTA,0.119
3,CTCGTGTC,0.184
4,AAACGCGG,0.0999
5,ATGGCTAA,-0.198
6,ATAGCTAA,-0.0278
7,CAGTTCTA,-0.0219
8,CTCTACAG,0.0634
9,GTTCACGA,-0.101
10,AAGATTCT,-0.154
11,GGATGTAC,0.197
12,CTCTGAAA,-0.0147
13,ATTAAGCC,-0.194
14,AGCGACCA,-0.174
15,CGGACGTA,-0.112
16,AATTAGGT,0.0694
17,CCGCCGAC,-0.0974
18,GCAAATGC,0.0841
19,ATCGAATC,0.00195
20,ACTAGGAA,0.19
21,CGTTAGTC,-0.132
22,ATCTCCCG,-0.24
23,GTCTCAAA,-0.22
24,GATTCACA,0.107
25,AAAACCTG,-0.0219

row,Sequence,PBM E-score
1,ATAAGTGC,-0.0532
2,GAATCTTA,-0.0559
3,CAAAACCA,0.0975
4,ACAGCTTC,-0.0793
5,GTCTTACA,0.263
6,GTAGGGAA,0.0974
7,GTGGCTGA,-0.235
8,CAAACCTC,-0.25
9,CAGTTTAG,-0.0942
10,CGGGATGA,-0.225
11,CTCAAAAC,0.041
12,CGTCCTGA,-0.334
13,CCCTCGTC,-0.304
14,GACTCAAA,-0.182
15,CTCTAAGA,-0.117
16,CTATTATC,0.132
17,CCACTTAG,0.0229
18,CCTGCCCC,-0.241
19,AACGCTCA,0.0456
20,ATTCCGGC,0.0238
21,CAAACACC,0.0695
22,CAGCGTCC,-0.0903
23,GATGAGTA,0.0307
24,CAATCTGC,-0.147
25,CTGATGGC,-0.218

row,Sequence,PBM E-score
1,GTATTCTA,0.112
2,ATTGTTAG,0.211
3,AGGAAACA,0.391
4,AATTCGCG,0.228
5,AGGATAAA,0.104
6,ACCAACGC,-0.0129
7,CCTTCTGC,-0.193
8,TAGCTCGA,-0.166
9,AATTTGTA,0.186
10,GACGACCA,-0.161
11,ACAACATA,0.307
12,AATCAGCA,0.136
13,AGACTTGG,-0.245
14,GTAGTGCA,0.021
15,ACACGACC,0.29
16,CCATCACG,-0.0536
17,CAAATAGG,0.248
18,GGCATCAA,-0.00866
19,GAACTGTA,0.158
20,CTGTCAAC,0.0592
21,CTGCTCAC,-0.129
22,ACCTGCGA,0.0659
23,TCAAAAGA,-0.0592
24,GCAGAACC,0.0393
25,CAAATTCG,-0.192

row,Sequence,PBM E-score
1,AACTAACT,-0.143
2,ATAGTTCC,0.0344
3,GCCGGTAA,-0.0782
4,CATCTCGA,-0.141
5,CCGGCCTC,-0.0877
6,CCTTCCCG,-0.234
7,GAAGGCCC,0.122
8,CTGCCAAG,-0.0709
9,AGAAAAAG,-0.0708
10,GCGGGGAA,-0.0789
11,AGGGAAGC,-0.33
12,TCGAGAAA,0.0487
13,AGTCAGGA,0.0678
14,GGTTGTAA,0.269
15,TTCAAGAA,0.00671
16,CCGAATGC,-0.272
17,TCCTAGCA,-0.0797
18,CGGGCCGA,-0.23
19,CCAGTACG,-0.153
20,GCAGAAGA,-0.222
21,AGACATAA,0.121
22,CTACGTGC,0.108
23,ATTTTATG,-0.00782
24,CCGTATAG,-0.208
25,GTCTTTAA,0.0399

row,Sequence,PBM E-score
1,TAGGAATA,-0.0896
2,CTATTTAA,0.0572
3,ACTGCTCG,-0.123
4,ACATAGCA,0.269
5,AGTTAAGG,0.116
6,AGTCTGAG,-0.225
7,ATCGCGGG,-0.186
8,AACATGAC,0.359
9,ACCTGGCT,-0.161
10,CGTCGCGA,-0.1
11,GCAGTATA,-0.17
12,TCGGCTCA,-0.327
13,GAGTACGA,-0.0923
14,GCCATGGA,-0.144
15,AGTCCATC,-0.184
16,AATCCCAG,-0.0485
17,CTAGCGAC,-0.0534
18,GTCGCTTA,-0.0775
19,GTGCCCTA,0.265
20,TATCGGAA,0.0818
21,ACTGCTTC,-0.242
22,CTAACCAC,-0.0498
